# Experimental data published in PubChem BioAssay AID686978 (National Center for Advancing Translational Sciences (NCATS), 2013).
# The campaign covered roughly 420,000 compounds. About 64,000 (15%) were called active. Inconclusive means that the source gave no clear call. Such entries were picked first, then a sample of the others. Calls follow the shape of the dose curve; as a rule, active = well fitted inhibition curve with a large enough effect; inconclusive = small, poorly fitted or top-dose-only effect; inactive = flat fitted curve, though single readings scatter. Potencies of inconclusive entries are left out as doubtful fits.
# Experiment: qHTS for Inhibitors of human tyrosyl-DNA phosphodiesterase 1 (TDP1): qHTS in cells in absence of CPT; also: nearly all actives have a fitted effect of over 55% in size
# Settings: DT40 Tdp1-/- hTDP1 cells, no CPT, ATP luminescence, 48 h; activity change, negative = growth inhibition: at 46.2 µM (top of the series)
# Summary of the method: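 Cells were dispensed at 400 per well, compounds added by pin tool, plates incubated ≥48 hr at 37 °C, then CellTiter-Glo added for 30 min at room temperature before luminescence reading. Line: DT40 Tdp1-/- complemented with hTDP1; camptothecin omitted.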
# % is scaled to controls: 0 for no effect and ±100 for the full control effect; potency is read from the fitted curve at half-maximal effect; tags tell the direction and shape of the fitted curve.
Compound,"activity change, negative = growth inhibition",Potency
CCCCn1c(N)c(N(CCC(C)C)C(=O)COC(=O)c2cccnc2OCC)c(=O)[nH]c1=O,inactive: 14.9%,–
Cc1ccc(C(=O)c2c[nH]c3c(F)cc(F)cc3c2=O)cc1,–,"inconclusive [inhibitor, single point]"
Cc1ccc(-c2nnc3c4ccccc4c(C)nn23)cc1S(=O)(=O)N1CCN(C)CC1,inactive: -27.8%,–
COc1ccc(C(=O)CSC2=NS(=O)(=O)c3cc(Cl)ccc3N2)cc1,inactive: -28.7%,–
Cc1ccc(NC(=O)Cn2ncn3c(cc4ccccc43)c2=O)cc1C,–,"inconclusive [inhibitor, single point]"
Cc1noc2ncnc(Sc3ccccc3Cl)c12,–,"inconclusive [inhibitor, single point]"
CCN(CC)S(=O)(=O)c1ccc(NC(=O)COc2c(OC)cccc2OC)cc1,–,"inconclusive [inhibitor, single point]"
Cc1ccc(CNC(=O)c2cccc(Nc3nc4ccccc4n4nnnc34)c2)cc1,–,active: 10.3 µM
N#Cc1c2c(c(-n3cnc4ccccc43)n3c1nc1ccccc13)CCC2,–,"inconclusive [inhibitor, partial curve]"
CC(C)(C)C(=O)c1c(N)[nH]c(C(=O)c2ccccc2)c1-c1cc2ccccc2nc1Cl,–,"inconclusive [inhibitor, single point]"
CCOc1ccc(C2(C)CC(=O)N(C)C2=O)cc1 (stereo not given),inactive: 5.33%,–
CCOc1cccc(C(=O)Nc2cccc(NC(=O)c3ccco3)c2)c1,–,"inconclusive [inhibitor, single point]"
Cc1ccc(N2CCN(c3nc4ccccc4c4nnc(C)n34)CC2)c(C)c1,inactive: -9.92%,–
CC(=O)Nc1cccc(C(=O)/C=C/c2ccco2)c1,–,"inconclusive [inhibitor, single point]"
CCOc1ccc(CCNC(=O)Nc2ccccc2)cc1OCC,inactive: -29.6%,–
COc1cccc(Nc2ncc3ncc(=O)n(Cc4cccs4)c3n2)c1,–,"inconclusive [inhibitor, single point]"
Cc1cc(C)n(-c2nc(SCCN(C)C)c3c4c(sc3n2)COC(C)(C)C4)n1,–,active: 17.8 µM
CC1CCN(C(=O)COC(=O)CCc2c[nH]c3ccccc23)CC1,–,"inconclusive [inhibitor, single point]"
COC(=O)c1ccccc1NC(=O)Cn1c(=O)n(CCCCC(=O)NCc2ccc3c(c2)OCO3)c(=O)c2ccccc21,–,"inconclusive [inhibitor, single point]"
Cc1cc(C(O)c2ncc(-c3ccccc3)[nH]2)ccc1F (stereo not given),–,"inconclusive [inhibitor, partial curve]"
CCOC(=O)c1c(C)[nH]c(C)c1S(=O)(=O)N(C)CC(=O)N1CCN(c2cccc(Cl)c2)CC1,–,"inconclusive [inhibitor, single point]"
COc1ccccc1C1/C(=C(/O)c2ccc(C)cc2)C(=O)C(=O)N1Cc1ccco1 (stereo not given),inactive: 3.77%,–
CC(C)c1ccc(NC2CCCN(C(=O)c3cscn3)C2)cc1 (stereo not given),–,"inconclusive [inhibitor, single point]"

Compound,"activity change, negative = growth inhibition",Potency
CCC(=O)Nc1ccc(Cl)c(NC(=O)c2ccc(Br)o2)c1,–,"inconclusive [inhibitor, single point]"
Cn1c(=O)c2c(nc(N3CCOCC3)n2Cc2ccccc2)n(C)c1=O,–,active: 25.9 µM
Cc1nn(C)c(C)c1S(=O)(=O)N(CC(=O)NCCN1CCOCC1)c1ccc(C(C)C)cc1,inactive: -1.86%,–
CCCNC(=S)NNC(=O)c1cccs1,inconclusive: -30.8% [inhibitor],–
c1ccc(-c2c(-c3ccccc3)n(Cc3ccco3)c3ncnc(NCCCn4ccnc4)c23)cc1,–,"inconclusive [inhibitor, single point]"
CCOC(=O)N1CCC(NS(=O)(=O)c2cc3c(cc2Cl)NC(=O)CO3)CC1,–,active: 23.1 µM
COc1ccc(C)cc1NC(=O)CSc1nnc2ccc(-c3ccccn3)nn12,–,"inconclusive [inhibitor, partial curve]"
COc1ccccc1CNC(=O)c1cnn(-c2nccc(-c3cccs3)n2)c1C,–,"inconclusive [inhibitor, single point]"
C=CCc1ccc(OCCCN2CCCC(C)C2)c(OC)c1 (stereo not given),–,"inconclusive [inhibitor, partial curve]"
CCOC(=O)C(=O)/C(=C\N(C)C)c1onc(-c2c(F)cccc2Cl)c1C(=O)OC,–,"inconclusive [inhibitor, single point]"
CC(=O)NCc1ccc(C(=O)CN2C(=O)NC3(CCCCC3C)C2=O)s1 (stereo not given),inactive: 2.7%,–
COc1ccc(CCNC(=O)CN2C(=O)NC(C)(c3ccc([N+](=O)[O-])cc3)C2=O)cc1 (stereo not given),inactive: -10.5%,–
CN(C)c1ccc(/C=C/c2nc3ccccc3s2)cc1Cl,–,active: 2.82 µM
CCNCCNC(=O)c1c(O)c2cccc3c2n(c1=O)CCC3,–,"inconclusive [inhibitor, partial curve]"
CCn1ccnc1CN(C)Cc1nc(Cc2cccc(C(F)(F)F)c2)no1,inactive: -13.7%,–
Cc1nc(C)c(C(=O)NNC(=O)c2ccc(Br)cc2)s1,inactive: -29.4%,–
CCOC(=O)CSc1nc2sc3c(c2c(=O)n1-c1ccccc1)CCN(C(C)C)C3,–,"inconclusive [inhibitor, single point]"
CCOc1cc(CNCc2ccncc2)cc(Br)c1OCc1ccc(F)cc1,–,active: 11.2 µM
COCCn1c(N)c(C(=O)NCC2CCCO2)c2nc3ccccc3nc21 (stereo not given),–,"inconclusive [inhibitor, partial curve, poor fit]"
CCC(=O)N1c2ccccc2C(N(C(C)=O)c2ccccc2)CC1C (stereo not given),inconclusive: -35.3% [inhibitor],–
c1ccc(CCc2cn(C[C@H]3CC[C@@H]([C@@H]4CC[C@H](Cn5cc(CCc6ccccc6)nn5)O4)O3)nn2)cc1,–,active: 14.6 µM
COCc1c(C(=O)N2CCN(Cc3nc4ccccc4s3)CC2)oc2ccccc12,–,"inconclusive [inhibitor, single point]"
